# Assay results taken from the supplement of paper PMC3334620.
# Whole data set: some 33,000 sequences, median “E-score (-0.5 to 0.5)” near -0.012, cut for the highest 2% near 0.29. The list shows a part of the results.
# Biological target: T1, Ybr033w (UniProt P38073)
# T1 sequence: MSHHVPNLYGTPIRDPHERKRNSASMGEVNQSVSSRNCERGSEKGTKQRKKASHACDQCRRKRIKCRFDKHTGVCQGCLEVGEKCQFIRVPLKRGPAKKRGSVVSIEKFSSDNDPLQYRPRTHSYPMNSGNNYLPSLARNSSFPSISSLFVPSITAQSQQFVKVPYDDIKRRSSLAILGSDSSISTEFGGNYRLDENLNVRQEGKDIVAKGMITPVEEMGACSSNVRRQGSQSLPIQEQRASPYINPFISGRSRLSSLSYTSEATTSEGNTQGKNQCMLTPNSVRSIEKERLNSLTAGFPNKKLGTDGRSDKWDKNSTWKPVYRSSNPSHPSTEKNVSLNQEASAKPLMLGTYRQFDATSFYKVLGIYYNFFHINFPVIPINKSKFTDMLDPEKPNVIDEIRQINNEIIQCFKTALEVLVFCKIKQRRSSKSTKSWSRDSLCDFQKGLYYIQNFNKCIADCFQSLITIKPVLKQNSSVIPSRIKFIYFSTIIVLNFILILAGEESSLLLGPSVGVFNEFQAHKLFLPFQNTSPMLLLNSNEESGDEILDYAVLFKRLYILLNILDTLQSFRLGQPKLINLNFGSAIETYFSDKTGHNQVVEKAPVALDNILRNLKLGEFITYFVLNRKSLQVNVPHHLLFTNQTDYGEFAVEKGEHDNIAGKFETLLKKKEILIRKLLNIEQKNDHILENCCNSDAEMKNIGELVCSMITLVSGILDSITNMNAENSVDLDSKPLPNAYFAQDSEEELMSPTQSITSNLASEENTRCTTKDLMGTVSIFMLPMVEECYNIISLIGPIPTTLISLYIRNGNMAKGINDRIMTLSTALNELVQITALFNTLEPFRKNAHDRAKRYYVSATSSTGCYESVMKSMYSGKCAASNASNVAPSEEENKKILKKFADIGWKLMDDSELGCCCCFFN
# Experiment: PBM E-score (8-mer binding enrichment) (E-score (-0.5 to 0.5)); higher = stronger / more preferred TF binding; most listed sequences are background and not binding sites
# Conditions: protein concentration: 200 nM; construct: GST-full length
# Summary of the method: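 Full-length yeast transcription factors or their DNA-binding domains, GST-tagged and expressed with PURExpress, were applied at about 100-200 nM to universal all-10-mer Agilent arrays. These arrays had been made double-stranded by primer extension on fresh or once-stripped slides. Detection used fluorescent anti-GST, normalisation used masliner, and E-scores for ungapped eight-base words pooled with reverse complements came from the Universal PBM Analysis Suite.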
row,Sequence,PBM E-score
1,AAACTACG,0.0517
2,CACTCCCA,-0.0427
3,CGCATGAG,-0.203
4,AACGTATA,0.2
5,ATTCGTCG,0.143
6,ATTACAAT,0.0893
7,CCCCTCGC,-0.168
8,AATGCAGA,0.122
9,CGTTCGAA,0.116
10,GCTGATAA,0.207
11,GGACTACA,0.0454
12,CGGAAAAC,0.0147
13,CATAGATC,0.00953
14,CTTCGTCC,-0.165
15,GAGCGGTA,-0.0319
16,ACAAAAGA,0.226
17,TAAAGCGA,0.106
18,ATGGGTAC,0.0672
19,CACGATGC,-0.313
20,AGTTTAGG,-0.0698
21,AACCATCT,0.00912
22,TCTTGTCA,0.00613
23,GATCACTA,0.0142
24,AACGTCCG,-0.109
25,TAAATTTA,0.289

row,Sequence,PBM E-score
1,CGATAATA,0.0851
2,AGTCCGCA,-0.0267
3,CGTCCGTC,-0.265
4,TACGCGTA,-0.0915
5,GTGGAGAA,0.0635
6,CCTTCGCA,-0.107
7,GCTACCTA,0.0581
8,GTTCCCTA,0.0774
9,ACTACGAA,0.117
10,GTGATGCA,0.172
11,AAACGGCC,0.00201
12,CCTGGAAA,0.034
13,CGGGTTGA,-0.147
14,ACGCAACA,0.00552
15,GATCACCA,0.00992
16,CTCAGCAC,-0.0418
17,CACCAGCA,-0.0753
18,ATGGCTGG,-0.166
19,ACATCCGT,0.0926
20,CCGGGGTC,-0.258
21,ATCAAGGC,0.0014
22,CTACTAGA,0.0742
23,CCCTTTAG,-0.235
24,CTAACCAG,-0.0178
25,CAAATATG,0.0991

row,Sequence,PBM E-score
1,TAATGCAA,0.143
2,ATCTCTCC,-0.0659
3,AAGACGAA,0.0937
4,AAACAGGA,0.0833
5,GATCAATC,0.184
6,GCCAACGC,-0.207
7,CAGCGCTG,0.00506
8,CCGTAGGA,-0.167
9,GACCGCCC,-0.188
10,AAGTCTGT,-0.0835
11,CTACCGTA,0.0347
12,ACCGTTTC,-0.0929
13,CGGGTTGC,-0.0517
14,CCGACAGC,-0.196
15,ATACGAAG,0.18
16,AAATAAAC,0.253
17,AGGGGATA,-0.0855
18,CCTTAACA,-0.102
19,AGAGTCTC,-0.116
20,CCGCAATC,0.045
21,ATTTAGTG,0.256
22,AGGTGTAT,0.0888
23,CTACTCCC,0.121
24,ATGATATA,0.178
25,CTTGGGAC,-0.136

row,Sequence,PBM E-score
1,CGTAAACG,-0.0894
2,ACGGTTAC,0.155
3,ATAGCACA,0.108
4,ATACAAAT,0.252
5,TAATAGCA,-0.00047
6,ATCTTCCG,0.438
7,ACCGATCT,-0.207
8,AAGCATCG,0.0597
9,CGATGAAG,0.128
10,AGACGAAT,0.203
11,GCCCCCGA,-0.397
12,ATTTCTTA,0.195
13,ACTGTTGG,0.0493
14,GTCCGCGA,-0.115
15,ATCGCCGC,-0.137
16,AAGGTGCC,-0.223
17,ACGGCTTC,-0.045
18,GAGAATGA,0.122
19,GTTGATAA,0.259
20,GGCCTCCA,-0.221
21,CGACCACG,0.0048
22,CTGCAGCC,-0.177
23,AAGCTGAA,-0.0362
24,GGAGCACC,-0.205
25,ACTTGCCG,-0.144

row,Sequence,PBM E-score
1,ATCGAGTG,0.0677
2,CTGACAAC,-0.126
3,AGTATGGC,-0.207
4,AGGTTTCG,-0.0132
5,ATCAGGAC,-0.0489
6,CGGATCGC,-0.245
7,GGACGGCA,-0.0865
8,GTGTGACA,-0.106
9,CGTGGCCA,-0.368
10,GGAAGGCA,-0.183
11,CCATTTTA,0.181
12,AATGCGCC,-0.0289
13,ATTTCTCC,0.404
14,AACTTTCT,0.0948
15,ATAGTAGC,0.16
16,ATAGACGA,0.0163
17,CCATGAAG,-0.00549
18,GCGCGCCC,-0.231
19,GCGCACTA,-0.0897
20,ACTATTGC,0.177
21,CTACAACA,0.0972
22,AAGTGAAA,0.29
23,AGGATGTC,-0.0494
24,GAAACATA,0.164
25,CTGGCGGA,-0.157

row,Sequence,PBM E-score
1,CGATGACA,-0.0734
2,CTAGCCCA,-0.142
3,ATCAGCTA,-0.0753
4,CGCTCACA,-0.0795
5,AGGACCTG,-0.19
6,AGTTCAGA,0.243
7,CCGTCTGA,-0.128
8,CCGTTTGA,-0.137
9,ACTTAAGA,0.136
10,ACAATAGC,0.132
11,GTGCGGCA,-0.128
12,CCGTAACG,-0.224
13,TCAGGAGA,0.144
14,AACGTGTC,-0.0306
15,GGAGAGCC,-0.372
16,ACGGTATA,-0.217
17,GAGGTAAA,0.139
18,GAGGGAAC,-0.239
19,GCTTACAC,-0.0308
20,ACGTTGGG,-0.0582
21,ATCCTGCC,-0.248
22,CCGCTCAC,-0.146
23,GGAACAAC,0.454
24,GATGCGAC,-0.0981
25,GTTTCCCA,0.0398

row,Sequence,PBM E-score
1,ACTTGCCT,-0.00707
2,CACGAAGC,-0.0581
3,AAAATTCC,0.231
4,CGCGGCAC,-0.0926
5,GTGGCGAA,-0.0825
6,GAACAGCA,0.161
7,ACAGTCGT,-0.164
8,CCGAGGAC,-0.0855
9,GAAACGTA,0.175
10,GCTCAACA,0.0367
11,AAGCGACT,-0.126
12,ATGACAAC,0.111
13,TGCATAAA,0.218
14,AAGACTCT,0.135
15,AGGACCTC,-0.167
16,GGTTGTCA,0.0462
17,ACGGGGTA,-0.251
18,ACTTCGTC,0.084
19,AGTTCCGA,0.134
20,GCATTTGA,0.136
21,CCGACTTC,-0.29
22,CTTGCTGA,0.0188
23,CACCGCCC,-0.163
24,CCTATAGG,-0.151
25,ACACGGAT,0.0519

row,Sequence,PBM E-score
1,CGAGTGTA,-0.102
2,CGCGAGTC,-0.0881
3,CTAGGACA,0.0391
4,AAGCTTCA,0.0148
5,ACAATACT,0.219
6,CTTAATCA,0.187
7,ACGACATA,-0.0109
8,AACGTTGC,0.0686
9,AGCAGCGA,0.0113
10,GCAAACCC,-0.184
11,AAACGGGT,0.00668
12,GTAAGGGA,-0.113
13,CGTCTGGC,0.0541
14,CTACGCAG,-0.0272
15,GCTGTAAA,0.181
16,ATCGCAGC,0.018
17,CCGGCAGC,-0.19
18,AGGCTCCG,-0.113
19,AAACGGGG,-0.0586
20,ATACACAA,0.119
21,GTCGCCAA,-0.151
22,GAATTTAA,0.0723
23,TCACAACA,0.178
24,CACCAACA,-0.0893
25,AGGTACAG,-0.0511

row,Sequence,PBM E-score
1,CATCTGTA,-0.105
2,AGTGGCTC,-0.0248
3,AAGAACTA,0.255
4,TAGAAACA,0.0789
5,TCGAGTCA,-0.0907
6,GATATTGA,0.177
7,ATATGACA,0.232
8,ATGTTGGG,-0.175
9,CATGGCGA,-0.106
10,CTACCACA,0.092
11,CCACTCAA,0.0248
12,CCGCCTGC,-0.279
13,GGGGGAGA,-0.128
14,ACACCTTC,0.0699
15,GCTAGGCA,-0.146
16,ATTCGACA,0.0819
17,AGGACGGC,-0.235
18,AGCCGCGG,-0.0723
19,CGGGTTCC,-0.0326
